# From patent CN116018351A (SHANGHAI YOUTI JISHENG BIOMEDICAL CO LTD, dated 2023)
# T1: CD123-Fc重组蛋白 (human, UniProt P26951 19-305)
# T1 construct: also called CD123-Fc蛋白; 人CD123-Fc; not shown: Fc part
# T1 sequence: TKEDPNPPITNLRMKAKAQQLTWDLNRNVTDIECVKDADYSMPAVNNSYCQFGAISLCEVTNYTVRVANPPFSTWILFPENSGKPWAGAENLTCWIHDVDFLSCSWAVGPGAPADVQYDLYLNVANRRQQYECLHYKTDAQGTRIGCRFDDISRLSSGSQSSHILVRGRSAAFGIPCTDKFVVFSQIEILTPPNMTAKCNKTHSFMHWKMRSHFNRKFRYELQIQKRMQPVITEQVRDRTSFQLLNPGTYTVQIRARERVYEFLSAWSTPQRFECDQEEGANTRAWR
# B1: 抗CD123 scFv-C25 (in a CAR on T cells) (scFv)
# scFv: QSALTQPASVSGPPGQSITISCTGTSSDVGGYNYVSWYQQHPGKAPKLMIYDVSNRPSGVSNRFSGSKSGNTASLTISGLQAEDEADYYCSSYTSSSTWVFGGGTKLTVLGGGGSGGGGSGGGGS[sequence of about 100 residues not given]YYFYSSGDMTDYWGQGTLVTVSS
# notes: Human scFv from phage display; not shown: rest of the CAR, hinge domain to CD3-zeta domain
# B2: 抗CD123 scFv-C28 (in a CAR on T cells) (scFv)
# scFv: QSALTQPASVSGSPGQSITISCTGTSSDVGGYNYVSWYQQHPGKAPKLMIYDVSNRPSGVSNRFSGSKSGNTASLTISGLQAEDEADYYCSSYTSSSNWVFGGGTELTVLGGGGSGGGGSGGGGS[sequence of about 100 residues not given]YYFYSSGDMTDYWGQGTLVTVSS
# notes: as for B1
# B3: 抗CD123 scFv-C35 (in a CAR on T cells) (scFv)
# scFv: QSVVTQPPSVSAASGQKVTISCSGSSPNIGNNYVSWYQHLPGTAPKLLIYDNNKRPSGIPDRFSGSKSGTSVTLGITGLQTGDEADYYCGTWDSRLNIWVFGGGTKLTVLGGGGSGGGGSGGGGS[sequence of about 100 residues not given][sequence of about 20 residues not given]
# notes: as for B1
# B4: 抗CD123 scFv-C7 (in a CAR on T cells) (scFv)
# scFv: [sequence of about 100 residues not given]GGGGSGGGGSGGGGSQVQLVQSGAEVKKPGASVKVSCKASGYTFTSYGISWVRQAPGQGLEWMGWISAYNGNTNYAQKLQGRVTMTTDTSTSTAYMELRSLRSDDTAVYYCARDPYDDYGGNSRDEEDAFDIWGQGTMVTVSS
# notes: Human scFv from phage display; also called 抗-CD123-C7; not shown: rest of the CAR, hinge domain to CD3-zeta domain
# Target: T1, CD123-Fc重组蛋白
# Assay: FACS staining of CAR T cells with CD123-Fc recombinant protein
row,Binder,binding result
1,B1,binds
2,B2,binds
3,B3,binds
4,B4,binds
